The record followed here is PMC10726135.

The other results are listed elsewhere or left out. At the low end of the ranking, values are background and their order means little. The protein was read in a cell extract, so binding may be indirect.

The target of this experiment is T1, HNF4alpha2 (COS-7 nuclear extract) (UniProt P41235).
T1 sequence: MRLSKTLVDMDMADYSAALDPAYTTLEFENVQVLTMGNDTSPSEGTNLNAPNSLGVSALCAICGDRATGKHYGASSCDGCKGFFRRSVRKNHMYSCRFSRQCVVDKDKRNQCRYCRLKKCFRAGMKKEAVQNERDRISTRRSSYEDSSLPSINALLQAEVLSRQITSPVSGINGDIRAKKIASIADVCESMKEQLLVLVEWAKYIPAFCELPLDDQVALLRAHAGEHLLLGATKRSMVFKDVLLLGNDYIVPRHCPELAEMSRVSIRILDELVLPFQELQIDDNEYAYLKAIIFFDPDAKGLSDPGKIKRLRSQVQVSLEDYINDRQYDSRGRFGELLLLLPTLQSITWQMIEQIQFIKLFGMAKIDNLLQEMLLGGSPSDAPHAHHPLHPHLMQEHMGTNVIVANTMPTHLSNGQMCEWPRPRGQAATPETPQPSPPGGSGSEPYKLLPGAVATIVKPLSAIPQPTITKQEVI
The experiment is described as follows: protein-binding microarray. To be noted: COS-7 nuclear extract on double-stranded Agilent 4x180k PBM; binding buffer, salt, pH and temperature not given; high values mean tight binding; double strand, one strand shown; sequences stand for … in …GCCTAGGGAGATTAGAGTATCGGTCGA
For TGCCATTAAACACCTTATTTGGTCATGTTT, the binding signal (log2 normalized intensity) came to 1.67.

For the sequence TGTCTTGCTGATAAAGGGTGTGAGAGAGAA, the binding signal (log2 normalized intensity) stood at 1.13.

Take TGTAGAGGCCAGAGGTCGTGTCTCCATTCA: the binding signal (log2 normalized intensity) came out at 0.698.

As to GATAGCTAAACCAGATACGTGGGTCTGGTA, the binding signal (log2 normalized intensity) was -0.635.

For GAATAAAACCTCCCCCAAACCAAAGAGAAA, the binding signal (log2 normalized intensity) came out at 4.39.

For the sequence CAGCTGTTCCGTGTTCCAGAGCCTCCAAAG, the binding signal (log2 normalized intensity) was -1.13.

On to ACCCCAGCCTGCCCTCCTAGGGACAGGTGC, for which the binding signal (log2 normalized intensity) was found to be 2.75.

As for CGCTCCTCCCACGTCGCTGCCGCAGATCCC, the binding signal (log2 normalized intensity) is -1.06.

CAATATCACATACCAGTAAAAACAACTGCC: the binding signal (log2 normalized intensity) is -1.1.

Turning to AGGCCCAGGGCAAGGACTCTAAAGGGAATA, the binding signal (log2 normalized intensity) was -1.21.

Take CTAGAAACAGAGCCCAAGGCAAAGCAGATG: the binding signal (log2 normalized intensity) was -1.2.

Regarding TACTTTTGCTCTGTTGAAGAATAAGACCGA, the binding signal (log2 normalized intensity) turned out to be 0.948.

GTCCGCCACTAGCAACAGCTGCAGTGAAAT: the binding signal (log2 normalized intensity) was -1.14.

For the sequence GGCAAGTATGGTAAGGTCGACCTTTAAACG, the binding signal (log2 normalized intensity) came to 5.96.

Take AGTCTGGAGGGGTGCGAAGGTCGAGGCCAG: the binding signal (log2 normalized intensity) was found to be 2.23.

Take TTTAGCAACTGGTATGTTAGATTAGTGTGC: the binding signal (log2 normalized intensity) was 1.13.

For TCCAAACCGGTCTTTCCACTTGGGCTTCCT, the binding signal (log2 normalized intensity) is -0.77.

For the sequence CACAAGCTTCCCTTTCTACTGCCAGCCAGG, the binding signal (log2 normalized intensity) is -1.08.

Regarding GGGGCCCCATCGACCTTTGCTCCCGACTCT, the binding signal (log2 normalized intensity) was 8.11.

Take TATGTGACATGGACATTCTATGGAATACAG: the binding signal (log2 normalized intensity) amounted to 0.588.

Regarding AGCCCCCTTTCCCTTATCTTTGTTATCTGT, the binding signal (log2 normalized intensity) was 2.5.

Consider TTTGTTCCTAGCCACCATGCTCGGCTGCCT, for which the binding signal (log2 normalized intensity) was -0.771.

With AAGGAATGTAAGATGTTTGGGCGGGGAAAA, the binding signal (log2 normalized intensity) was -0.858.

On to CTCCCTTCCACCTTTGCCCTCCAAACTGAG, for which the binding signal (log2 normalized intensity) came to 3.52.

TGGACTTTGAACCTCTCTTCTTTTTCGTCT: the binding signal (log2 normalized intensity) is 6.71.

CTTATCAGCAGGGTCTTTTTGACCTGTATC: the binding signal (log2 normalized intensity) turned out to be 3.32.

As to TAAGCCCACTAGGGAATGAAGCTAAAAGAA, the binding signal (log2 normalized intensity) was -1.27.

With TTGGTTCCACATCAGAGAGTTCAAACTCTG, the binding signal (log2 normalized intensity) worked out at 1.49.

On to GATCAAGTGTCTCTACTGTCCATCTTTTGC, for which the binding signal (log2 normalized intensity) turned out to be 1.08.

Turning to GCACACATAATAGATGTGCTATATAAAAAC, the binding signal (log2 normalized intensity) is -0.847.

On to CCCCACCCGCGGTCCGTCCCTCCTGGTCGA, for which the binding signal (log2 normalized intensity) is 3.63.

For CTAAGATAACCATCAAATCCTCGGAAGACG, the binding signal (log2 normalized intensity) is -1.16.

As to AATCCTCGGAAGACGCACCTCTGCATACTT, the binding signal (log2 normalized intensity) was -1.09.

Consider GAAACCAGAAAAATGGAGCAGCTCTGTATT, for which the binding signal (log2 normalized intensity) was -1.02.

On to AGGCGCGCCCGCGCTGCTCGCAAGCAGAAC, for which the binding signal (log2 normalized intensity) was -1.13.

Turning to CTCCTGTTTGTATTCCTTGTCCTTGACCCT, the binding signal (log2 normalized intensity) was 4.35.

GATGAAAGGAGCTTGGGAAGACAGATGTGA: the binding signal (log2 normalized intensity) is -0.318.

As for CCCCCACCTCTTTTCCCAGACGTGGTGGAT, the binding signal (log2 normalized intensity) is 3.63.

As to AGGAGCTTGTAAGCCACAGTACAAAGGTGA, the binding signal (log2 normalized intensity) was 3.66.

For the sequence AACCTCCTTTGAGATAGCTATGATTATCCT, the binding signal (log2 normalized intensity) is -0.964.

For the sequence TAAGGAACTGTGTAATAAGGAGTTGTGTGA, the binding signal (log2 normalized intensity) was 1.03.

For the sequence GGCTACTTTCCTCCCACCTTCGAGCTTCAC, the binding signal (log2 normalized intensity) was 1.19.

On to TTATTATTTGTCTGGGTTATCAGTCTCTGT, for which the binding signal (log2 normalized intensity) worked out at 2.14.

Consider AGAGGGAAAGCGAGAGAGCCTGGACACACG, for which the binding signal (log2 normalized intensity) was -1.04.

As for TGAAGCCGTCCTGTCCTGGACTTTCCTTTG, the binding signal (log2 normalized intensity) stood at 2.85.

Consider TAATCTCAGATATGCTAATTAACCCTCCTG, for which the binding signal (log2 normalized intensity) turned out to be 0.717.

For the sequence ACAAGATCAATCAATTTACCTCTGCTCCCC, the binding signal (log2 normalized intensity) is 2.08.

TTAGAGAAAAAGCCCAAGAAACTTCAAAGA: the binding signal (log2 normalized intensity) is -1.15.

For the sequence GTGCTTGTCTGACTGCTGCCAAAGGTAAAA, the binding signal (log2 normalized intensity) amounted to 0.539.

CCCCTATGTCTAGGACTCTAGTGTTCTCTT: the binding signal (log2 normalized intensity) turned out to be 1.15.

With GACGCGGTCTCAGTTAACGGGGACGCTTTA, the binding signal (log2 normalized intensity) was -1.07.

For the sequence GGAATTCCTCCTCCTGTTTGTATTCCTTGT, the binding signal (log2 normalized intensity) was determined as 1.24.

Turning to CTGTTGACCTTGAAATGCCATGTGATCTCT, the binding signal (log2 normalized intensity) worked out at 2.1.

As for AGGGTCAGAGGACAGGCTAATGAGATAATG, the binding signal (log2 normalized intensity) was -1.16.

As to TGAAAACAGGGCAAGGAACGGAATGTGTGA, the binding signal (log2 normalized intensity) is -0.72.

For the sequence CGGCGGCGCAGACGGCGGATCCTCCCAGCC, the binding signal (log2 normalized intensity) was -1.11.

For AGAAATGCCAAGATCAGGGCTAAGATCAGA, the binding signal (log2 normalized intensity) was -1.04.

Turning to TGTTTCTTATCACACAGTCAACATGTCATT, the binding signal (log2 normalized intensity) came out at 0.747.

Turning to AGATACGCCTGAACTTTGATCAGCATTCAA, the binding signal (log2 normalized intensity) was determined as 5.06.

As to GAGCCATAGCCCAAGTTCAAAGGTTATCTG, the binding signal (log2 normalized intensity) turned out to be 5.92.

As to CACAGGTAAACATTTGCCTTTAGGGCCCCC, the binding signal (log2 normalized intensity) is 2.56.

TACCCACGTTTAGGATTAAACACGTTTTAT: the binding signal (log2 normalized intensity) stood at 0.317.

On to ACCCTTTTGCCCTTTGAGCTTCTGTCTTGG, for which the binding signal (log2 normalized intensity) came out at 4.16.

For the sequence TACCAACAGGCTTAACATAAAGGGTTGAAG, the binding signal (log2 normalized intensity) was -0.282.

On to GGATGACCCAGATAGGCAAAGTGGCTAGGA, for which the binding signal (log2 normalized intensity) was -1.01.

Consider CCTCTATCCTCCACAAACAAACAGGGTGGC, for which the binding signal (log2 normalized intensity) is -0.292.

Consider CAAGTTGGTTTACATTCTTAGAAGATAAAG, for which the binding signal (log2 normalized intensity) is 0.954.

Take TAATTCTGTGTCATCTGAACTCTGACCAAC: the binding signal (log2 normalized intensity) turned out to be 3.89.

For AGGTAGATGAATCCACAAAGATAAGAAAAA, the binding signal (log2 normalized intensity) is -1.26.

As for TATTTGATGGTACAAATTCATGGCTGGGCT, the binding signal (log2 normalized intensity) was -0.775.

With TGACTGGGGTTAACGTCCAAAGGTAATGGT, the binding signal (log2 normalized intensity) is 2.32.

As for GCATGTGGGGGCCACGCACACCTGGATCTT, the binding signal (log2 normalized intensity) is -1.09.

CAGTCCTTCAGTCCTTCCCCCGCCAGATGT: the binding signal (log2 normalized intensity) was determined as 4.84.

For CTCACAGCTCAATCCAACAAATAGACATTC, the binding signal (log2 normalized intensity) was -0.505.

Turning to AGGGAAGAGATCATGGCCGATCGACTAGCG, the binding signal (log2 normalized intensity) is -1.14.

Take GTCCACAGAAAGGCAAGAAGTATGACAACA: the binding signal (log2 normalized intensity) is -0.936.

AAGGGCTTCAGAGTCGATAGTCCAAATTCT: the binding signal (log2 normalized intensity) worked out at 1.45.

Turning to GGTTCTGGGGTGATTACCCTTATCTTATCT, the binding signal (log2 normalized intensity) came to 1.5.

For AGGCGGAACAAGGCTGAAGGGAAGCTCTGG, the binding signal (log2 normalized intensity) was -1.28.

As for GAGCCAGGTGTGCTGAGGAAACTGACAGGA, the binding signal (log2 normalized intensity) is -1.05.

On to ACTGATAACGCCCGCCTAACCTTGAGGAGC, for which the binding signal (log2 normalized intensity) was -1.1.

On to TTATATGTCCACCTTATCTAATGCCCCAAA, for which the binding signal (log2 normalized intensity) was determined as 3.43.

Turning to GCCTTTGGTACAGGGCCCAGAAAAGTAGAT, the binding signal (log2 normalized intensity) is -1.06.

Take ACATTCCAGTGGTCCCTGGAGATAATAGTG: the binding signal (log2 normalized intensity) worked out at 0.0399.

Turning to GTCCAAATAGCGCTAACTCTATATCCAAGA, the binding signal (log2 normalized intensity) is -1.23.

TCTATGCCAAGCTCTGGGCTAGTCCCTGAG: the binding signal (log2 normalized intensity) is -0.951.

As for CTGGGGCCACCCTCCTCTCTGGGTCAAAGG, the binding signal (log2 normalized intensity) is 4.74.

For the sequence GCCAGCCAGGGCCACCCATCAGTGGACTTT, the binding signal (log2 normalized intensity) came to 6.63.

On to GAACAGCAAGACTTTGGCCCTGCAGACTTT, for which the binding signal (log2 normalized intensity) worked out at 2.09.

For TTTTCACATGGAATGTCGTGCCCTAATCTC, the binding signal (log2 normalized intensity) came to 0.948.

With AGAGATGTACACAGTTCAAAGGGCAGACAG, the binding signal (log2 normalized intensity) is 3.75.

As to GGGAGGGGTGGACTTTGGCTTTTCCAAAGG, the binding signal (log2 normalized intensity) is 4.32.

For GCCACCCATCAGTGGACTTTGACCTTGTTT, the binding signal (log2 normalized intensity) was found to be 10.6.
